In the supplement of paper PMC8728848:
The other results are listed elsewhere or left out.

Columns and labels:
Assay in all cases: glycan array binding signal (z-score within array); higher = stronger binding
Settings in all cases: glycan notation: IUPAC condensed, linker removed
[1] = target: Neu5Ac(a2-3)Gal(b1-3)[Fuc(a1-4)]GlcNAc(b1-3)Gal(b1-4)[Fuc(a1-3)]GlcNAc
Procedure, shortened: (§1)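 The Consortium for Functional Glycomics database supplied 3228 glycan arrays, of which those lacking an available protein sequence were dropped. The binding signal, a within-array Z-score, was averaged across arrays of the same protein sequence and across linkers. Negative scores can be read as non-binding.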

[2] = target: Neu5Ac(a2-3)Gal(b1-3)[Neu5Ac(a2-3)Gal(b1-4)]GlcNAc
Procedure, shortened: as §1

[3] = target: Neu5Ac(a2-3)Gal(b1-3)[Neu5Ac(a2-6)]GalNAc
Procedure, shortened: as §1

Neu5Ac(a2-3)Gal(b1-4)Glc = target: Neu5Ac(a2-3)Gal(b1-4)Glc
Procedure, shortened: as §1

[4] = target: Neu5Ac(a2-3)Gal(b1-4)GlcNAc
Procedure, shortened: as §1

[5] = target: Neu5Ac(a2-3)Gal(b1-4)GlcNAc(b1-2)Man(a1-3)[GlcNAc(b1-2)Man(b1-4)GlcNAc(b1-2)Man(a1-6)]Man(b1-4)GlcNAc(b1-4)GlcNAc
Procedure, shortened: as §1

[6] = target: Neu5Ac(a2-3)Gal(b1-4)GlcNAc(b1-2)Man(a1-3)[Neu5Ac(a2-6)Gal(b1-4)GlcNAc(b1-2)Man(a1-6)]Man(b1-4)GlcNAc(b1-4)GlcNAc
Procedure, shortened: as §1

[7] = target: Neu5Ac(a2-3)Gal(b1-4)GlcNAc(b1-3)Gal(b1-3)GlcNAc
Procedure, shortened: as §1

[8] = target: Neu5Ac(a2-3)Gal(b1-4)GlcNAc(b1-3)Gal(b1-4)GlcNAc
Procedure, shortened: as §1

[9] = target: Neu5Ac(a2-3)Gal(b1-4)GlcNAc(b1-3)Gal(b1-4)GlcNAc(b1-3)Gal(b1-4)GlcNAc
Procedure, shortened: as §1

[10] = target: Neu5Ac(a2-3)Gal(b1-4)GlcNAc(b1-3)Gal(b1-4)[Fuc(a1-3)]GlcNAc
Procedure, shortened: as §1

[11] = target: Neu5Ac(a2-3)Gal(b1-4)GlcNAc(b1-6)[Gal(b1-3)]GalNAc
Procedure, shortened: as §1

[12] = target: Neu5Ac(a2-3)Gal(b1-4)GlcNAc(b1-6)[Neu5Ac(a2-3)Gal(b1-3)]GalNAc
Procedure, shortened: as §1

[13] = target: Neu5Ac(a2-3)Gal(b1-4)GlcNAc6S
Procedure, shortened: as §1

[14] = target: Neu5Ac(a2-3)Gal(b1-4)[Fuc(a1-3)]GlcNAc
Procedure, shortened: as §1

[15] = target: Neu5Ac(a2-3)Gal(b1-4)[Fuc(a1-3)]GlcNAc(b1-3)Gal
Procedure, shortened: as §1

[16] = target: Neu5Ac(a2-3)Gal(b1-4)[Fuc(a1-3)]GlcNAc(b1-3)Gal(b1-4)GlcNAc
Procedure, shortened: as §1

[17] = target: Neu5Ac(a2-3)Gal(b1-4)[Fuc(a1-3)]GlcNAc(b1-3)Gal(b1-4)[Fuc(a1-3)]GlcNAc(b1-3)Gal(b1-4)[Fuc(a1-3)]GlcNAc
Procedure, shortened: as §1

[18] = target: Neu5Ac(a2-3)Gal(b1-4)[Fuc(a1-3)]GlcNAc(b1-6)[Gal(b1-3)]GalNAc
Procedure, shortened: as §1

[19] = target: Neu5Ac(a2-3)Gal(b1-4)[Fuc(a1-3)]GlcNAc6S
Procedure, shortened: as §1

[20] = target: Neu5Ac(a2-3)Gal6S(b1-4)GlcNAc
Procedure, shortened: as §1

[21] = target: Neu5Ac(a2-3)Gal6S(b1-4)[Fuc(a1-3)]GlcNAc
Procedure, shortened: as §1

Neu5Ac(a2-3)GalNAc = target: Neu5Ac(a2-3)GalNAc
Procedure, shortened: as §1

[22] = target: Neu5Ac(a2-3)GalNAc(b1-4)GlcNAc
Procedure, shortened: as §1

[23] = target: Neu5Ac(a2-3)[GalNAc(b1-4)]Gal(b1-4)Glc
Procedure, shortened: as §1

[24] = target: Neu5Ac(a2-3)[GalNAc(b1-4)]Gal(b1-4)GlcNAc
Procedure, shortened: as §1

[25] = target: Neu5Ac(a2-3)[Neu5Ac(a2-6)]GalNAc
Procedure, shortened: as §1

Neu5Ac(a2-6)Gal = target: Neu5Ac(a2-6)Gal
Procedure, shortened: as §1

Neu5Ac(a2-6)Gal(b1-4)Glc = target: Neu5Ac(a2-6)Gal(b1-4)Glc
Procedure, shortened: as §1

[26] = target: Neu5Ac(a2-6)Gal(b1-4)GlcNAc
Procedure, shortened: as §1

[27] = target: Neu5Ac(a2-6)Gal(b1-4)GlcNAc(b1-2)Man(a1-3)[Gal(b1-4)GlcNAc(b1-2)Man(a1-6)]Man(b1-4)GlcNAc(b1-4)GlcNAc
Procedure, shortened: as §1

[28] = target: Neu5Ac(a2-6)Gal(b1-4)GlcNAc(b1-2)Man(a1-3)[GlcNAc(b1-2)Man(a1-6)]Man(b1-4)GlcNAc(b1-4)GlcNAc
Procedure, shortened: as §1

[29] = target: Neu5Ac(a2-6)Gal(b1-4)GlcNAc(b1-2)Man(a1-3)[GlcNAc(b1-2)Man(b1-4)GlcNAc(b1-2)Man(a1-6)]Man(b1-4)GlcNAc(b1-4)GlcNAc
Procedure, shortened: as §1

[30] = target: Neu5Ac(a2-6)Gal(b1-4)GlcNAc(b1-2)Man(a1-3)[Neu5Ac(a2-6)Gal(b1-4)GlcNAc(b1-2)Man(a1-6)]Man(b1-4)GlcNAc(b1-4)GlcNAc
Procedure, shortened: as §1

[31] = target: Neu5Ac(a2-6)Gal(b1-4)GlcNAc(b1-2)Man(a1-6)[Gal(b1-4)GlcNAc(b1-2)Man(a1-3)]Man(b1-4)GlcNAc(b1-4)GlcNAc
Procedure, shortened: as §1

[32] = target: Neu5Ac(a2-6)Gal(b1-4)GlcNAc(b1-2)Man(a1-6)[GlcNAc(b1-2)Man(a1-3)]Man(b1-4)GlcNAc(b1-4)GlcNAc
Procedure, shortened: as §1

[33] = target: Neu5Ac(a2-6)Gal(b1-4)GlcNAc(b1-3)Gal(b1-4)GlcNAc
Procedure, shortened: as §1

[34] = target: Neu5Ac(a2-6)Gal(b1-4)GlcNAc(b1-3)Gal(b1-4)[Fuc(a1-3)]GlcNAc(b1-3)Gal(b1-4)[Fuc(a1-3)]GlcNAc
Procedure, shortened: as §1

[35] = target: Neu5Ac(a2-6)Gal(b1-4)GlcNAc6S
Procedure, shortened: as §1

Neu5Ac(a2-6)GalNAc = target: Neu5Ac(a2-6)GalNAc
Procedure, shortened: as §1

[36] = target: Neu5Ac(a2-6)GalNAc(b1-4)GlcNAc
Procedure, shortened: as §1

Neu5Ac(a2-8)Neu5Ac = target: Neu5Ac(a2-8)Neu5Ac
Procedure, shortened: as §1

[37] = target: Neu5Ac(a2-8)Neu5Ac(a2-3)Gal(b1-4)Glc
Procedure, shortened: as §1

[38] = target: Neu5Ac(a2-8)Neu5Ac(a2-3)[GalNAc(b1-4)]Gal(b1-4)Glc
Procedure, shortened: as §1

[39] = target: Neu5Ac(a2-8)Neu5Ac(a2-8)Neu5Ac
Procedure, shortened: as §1

[40] = target: Neu5Ac(a2-8)Neu5Ac(a2-8)Neu5Ac(a2-3)Gal(b1-4)Glc
Procedure, shortened: as §1

[41] = target: Neu5Ac(a2-8)Neu5Ac(a2-8)Neu5Ac(a2-3)[GalNAc(b1-4)]Gal(b1-4)Glc
Procedure, shortened: as §1

[42] = target: Neu5Ac(a2-8)Neu5Ac(a2-8)Neu5Ac(a2-8)Neu5Ac(a2-3)[GalNAc(b1-4)]Gal(b1-4)Glc
Procedure, shortened: as §1

[43] = target: Neu5Ac(b2-6)Gal(b1-4)GlcNAc
Procedure, shortened: as §1

Neu5Ac(b2-6)GalNAc = target: Neu5Ac(b2-6)GalNAc
Procedure, shortened: as §1

[44] = target: Neu5Ac9Ac(a2-6)Gal(b1-4)GlcNAc
Procedure, shortened: as §1

[45] = target: Neu5Gc(a2-3)Gal(b1-3)GlcNAc
Procedure, shortened: as §1

[46] = target: Neu5Gc(a2-3)Gal(b1-3)[Fuc(a1-4)]GlcNAc
Procedure, shortened: as §1

Neu5Gc(a2-3)Gal(b1-4)Glc = target: Neu5Gc(a2-3)Gal(b1-4)Glc
Procedure, shortened: as §1

[47] = target: Neu5Gc(a2-3)Gal(b1-4)GlcNAc
Procedure, shortened: as §1

[48] = target: Neu5Gc(a2-3)Gal(b1-4)[Fuc(a1-3)]GlcNAc
Procedure, shortened: as §1

[49] = target: Neu5Gc(a2-6)Gal(b1-4)GlcNAc
Procedure, shortened: as §1

Neu5Gc(a2-6)GalNAc = target: Neu5Gc(a2-6)GalNAc
Procedure, shortened: as §1

[50] = target: Neu5Gc(b2-6)Gal(b1-4)GlcNAc
Procedure, shortened: as §1

B1: CBM32-1 (Clostridium perfringens) (protein)
chain: MGSSHHHHHHSSGLVPRGSHMASGVEITEGVTVTAKGNTEGNTADLAIDGDLSTYWESSNDYKWIEVDLGGIYELSKIEIFNKDEAVYKYNIYASEDGENFNKIAYKNNDNVSDSNGNVHTIDNVRAGKIRIDVVQNSNSDRVNIAEINVFG
glycan array binding signal (z-score) [1]: -0.197
glycan array binding signal (z-score) [2]: 0.127
glycan array binding signal (z-score) [3]: -0.151
glycan array binding signal (z-score) (Neu5Ac(a2-3)Gal(b1-4)Glc): 0.32
glycan array binding signal (z-score) [4]: -0.503
glycan array binding signal (z-score) [5]: 3.77
glycan array binding signal (z-score) [6]: -0.626
glycan array binding signal (z-score) [7]: -0.372
glycan array binding signal (z-score) [8]: -0.885
glycan array binding signal (z-score) [9]: -0.482
glycan array binding signal (z-score) [10]: -0.228
glycan array binding signal (z-score) [11]: -0.193
glycan array binding signal (z-score) [12]: 0.143
glycan array binding signal (z-score) [13]: -0.189
glycan array binding signal (z-score) [14]: -0.4
glycan array binding signal (z-score) [15]: -0.613
glycan array binding signal (z-score) [16]: 0.808
glycan array binding signal (z-score) [17]: 0.396
glycan array binding signal (z-score) [18]: 0.681
glycan array binding signal (z-score) [19]: -0.223
glycan array binding signal (z-score) [20]: 0.169
glycan array binding signal (z-score) [21]: -0.495
glycan array binding signal (z-score) (Neu5Ac(a2-3)GalNAc): -0.19
glycan array binding signal (z-score) [22]: -0.457
glycan array binding signal (z-score) [23]: -0.624
glycan array binding signal (z-score) [24]: -0.371
glycan array binding signal (z-score) [25]: -0.295
glycan array binding signal (z-score) (Neu5Ac(a2-6)Gal): -0.623
glycan array binding signal (z-score) (Neu5Ac(a2-6)Gal(b1-4)Glc): -0.487
glycan array binding signal (z-score) [26]: -0.423
glycan array binding signal (z-score) [27]: 0.04
glycan array binding signal (z-score) [28]: -0.381
glycan array binding signal (z-score) [29]: -0.172
glycan array binding signal (z-score) [30]: -0.463
glycan array binding signal (z-score) [31]: -0.218
glycan array binding signal (z-score) [32]: -0.62
glycan array binding signal (z-score) [33]: 0.062
glycan array binding signal (z-score) [34]: 0.193
glycan array binding signal (z-score) [35]: 0.149
glycan array binding signal (z-score) (Neu5Ac(a2-6)GalNAc): -0.5
glycan array binding signal (z-score) [36]: -0.242
glycan array binding signal (z-score) (Neu5Ac(a2-8)Neu5Ac): 0.297
glycan array binding signal (z-score) [37]: 0.005
glycan array binding signal (z-score) [38]: -0.358
glycan array binding signal (z-score) [39]: -0.099
glycan array binding signal (z-score) [40]: -0.631
glycan array binding signal (z-score) [41]: 0.108
glycan array binding signal (z-score) [42]: 0.537
glycan array binding signal (z-score) [43]: -0.579
glycan array binding signal (z-score) (Neu5Ac(b2-6)GalNAc): -0.382
glycan array binding signal (z-score) [44]: -0.914
glycan array binding signal (z-score) [45]: -0.339
glycan array binding signal (z-score) [46]: -0.136
glycan array binding signal (z-score) (Neu5Gc(a2-3)Gal(b1-4)Glc): 3.02
glycan array binding signal (z-score) [47]: -0.781
glycan array binding signal (z-score) [48]: 0.039
glycan array binding signal (z-score) [49]: -0.785
glycan array binding signal (z-score) (Neu5Gc(a2-6)GalNAc): -0.949
glycan array binding signal (z-score) [50]: -0.925
